Assay results from the RNAGym collection of RNA variant scans (doi:10.1093/nar/gkz1192).
Read counts are not given, so values of variants with three or more changes are uncertain.

B1: CPEB3 Ribozyme (parent)
chain: UAACAGGGGGCCACAGCAGAAGCGUUCACGUCGCAGCCCCUGUCAGAUUCUGGUGAAUCUGCGAAUUCUGCUGUAUAUCUC

Variants of: B1
Experiment: self-cleavage, relative activity (ratio to wild type); higher = more cleavage; in vitro, sequencing
Method in brief: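 Relative activity compares each variant's cleaved/total read fraction with that of the unmutated ribozyme. To get these fractions, barcoded CPEB3 ribozyme libraries from rounds of error-prone PCR were transcribed with T7 RNA polymerase for 5 hours at 37°C and then given 15 min of DNase I treatment before EDTA was added. The RNAs were reverse transcribed with template switching and sequenced on Illumina, and DNA sequencing linked barcodes to variants. A minimum of 5 reads applied, and three batches were averaged.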

Row | Variant | self-cleavage
1 | U31C C37U U67C C68A | 0.1
2 | U31C C38A C40U A57G | 0.13
3 | U31C C38G A56U | 0.19
4 | U31C C38G U41A U69C | 0.08
5 | U31C C38U C44U A75G | 0.13
6 | U31C C38U U48C U49C A56G A75G | 0.11
7 | U31C C39A A45G | 0.15
8 | U31C C39A A47G | 0.19
9 | U31C C39A A57U U78C | 0.13
10 | U31C C39A U78C | 0.43
11 | U31C C39U A57C | 0.24
12 | U31C C39U A75G | 0.28
13 | U31C C39U U48C U66A | 0.08
14 | U31C C40A G73A | 0.38
15 | U31C C40A U41C U48C A77G | 0.09
16 | U31C C40A U48A U60A | 0.12
17 | U31C C40A U54C A56G U67C | 0.34
18 | U31C C40A U67A U69A | 0.08
19 | U31C C40A U67C | 0.16
20 | U31C C40U A57G U78C | 0.19
21 | U31C C40U U48C | 0.15
22 | U31C C40U U49C | 0.17
23 | U31C C40U U67A | 0.23
24 | U31C C44G U51C U58C A65G U78C | 0.06

Row | Variant | self-cleavage
25 | U31C C44U A45G U54C U58C | 0.06
26 | U31C C44U U54G | 0.09
27 | U31C C62G U76G A77U | 0.1
28 | U31C C68A U76C | 0.21
29 | U31C G33A A57G A64G | 0.08
30 | U31C G33A C40A A64U G73U | 0.17
31 | U31C G33A C40U U54C | 0.12
32 | U31C G33A U41C U69C U76G | 0.05
33 | U31C G33A U43C A45G A65G | 0.18
34 | U31C G33A U69C | 0.14
35 | U31C G33C U41G U43C G63U | 0.11
36 | U31C G33U A45U | 0.15
37 | U31C G33U A56U U78C | 0.26
38 | U31C G33U G36U U49C A64G U78C | 0.06
39 | U31C G33U U41A U74C U76A | 0.14
40 | U31C G36A A45G | 0.08
41 | U31C G36A A45G A65G U69C | 0.21
42 | U31C G36A G63C U69C U76C | 0.1
43 | U31C G36A U43A U49A | 0.51
44 | U31C G36A U67C U76C | 0.11
45 | U31C G36U C81U | 0.09
46 | U31C G36U U51C | 0.07
47 | U31C G42A U43C A57G | 0.09
48 | U31C G42A U72G | 0.18

Row | Variant | self-cleavage
49 | U31C G42C U54A U67C | 0.1
50 | U31C G42C U67A U80C | 0.1
51 | U31C G46A U69C U72A U78C | 0.04
52 | U31C G52A A56G U78C | 0.82
53 | U31C G52A A64U | 0.24
54 | U31C G52U U54G U69C U80A | 0.35
55 | U31C G53U A64G | 0.69
56 | U31C G61A U78C U80C | 0.3
57 | U31C G63A U72C | 0.6
58 | U31C G63C U72C | 0.79
59 | U31C G73C U78C | 1.18
60 | U31C U41A A45G C68A C71A U78A | 0.07
61 | U31C U41A A45U G61A | 0.11
62 | U31C U41A A56G | 0.26
63 | U31C U41A A56U A64G A75U | 0.17
64 | U31C U41A A57G U66C | 0.16
65 | U31C U41A A64U | 0.07
66 | U31C U41A C62A U80C | 0.21
67 | U31C U41A U43C | 0.12
68 | U31C U41A U43C U49A U67C G73C U80A | 0.06
69 | U31C U41A U43C U76C | 0.12
70 | U31C U41A U69C | 0.22
71 | U31C U41A U72C U80C | 0.11
72 | U31C U41C A45U U67C | 0.16

Row | Variant | self-cleavage
73 | U31C U41C A56G A57G | 0.35
74 | U31C U41C A56G U72C | 0.24
75 | U31C U41C A57C U78C | 0.36
76 | U31C U41C A57G | 0.8
77 | U31C U41C A57G U60C U67C | 0.17
78 | U31C U41C A57U C81A | 0.83
79 | U31C U41C A65G | 0.39
80 | U31C U41C C62G | 0.18
81 | U31C U41C G63U | 0.98
82 | U31C U41C U43G C59U | 0.1
83 | U31C U41C U51A C59U | 0.65
84 | U31C U41C U51C A56U G63A U69A | 0.17
85 | U31C U41C U54C U72C A77U | 0.98
86 | U31C U41C U60C | 0.2
87 | U31C U41C U67A | 0.32
88 | U31C U41C U67G U74C | 0.38
89 | U31C U41C U69C U72A | 0.12
90 | U31C U41C U69C U72C | 0.17
91 | U31C U41C U72C | 0.72
92 | U31C U41G A56G | 0.08
93 | U31C U41G U72C | 0.31
94 | U31C U43A A45G U49C A64C | 0.07
95 | U31C U43A A57G U69A | 0.35
96 | U31C U43A G46A A47G U60A U67C | 0.09

Row | Variant | self-cleavage
97 | U31C U43A U48A U58A | 0.14
98 | U31C U43A U51G | 0.9
99 | U31C U43A U54A | 0.76
100 | U31C U43A U67A | 0.5
101 | U31C U43C A56G | 0.16
102 | U31C U43C A57G | 0.42
103 | U31C U43C A64G U78C | 0.07
104 | U31C U43C C44A U66C A75G | 0.29
105 | U31C U43C G61U A65G U69A | 0.2
106 | U31C U43C U67C | 0.22
107 | U31C U43C U69A U78C | 0.39
108 | U31C U43G A45G | 0.18
109 | U31C U43G A45G U67C A75G | 0.05
110 | U31C U43G A45U G73A U76A | 0.11
111 | U31C U43G U60C | 0.22
112 | U31C U48A U54A U72C U76C | 0.31
113 | U31C U48C A56C U69A | 0.11
114 | U31C U48C A56G | 0.4
115 | U31C U48C A57G | 1.03
116 | U31C U48C A65G | 0.08
117 | U31C U48C G52A U78C | 0.59
118 | U31C U48C U51C U60C | 0.17
119 | U31C U48C U54C A56U | 0.1
120 | U31C U48C U54C U67A | 0.12

Row | Variant | self-cleavage
121 | U31C U48C U54G | 0.48
122 | U31C U48C U67C | 0.18
123 | U31C U48C U69C | 0.19
124 | U31C U48C U74A | 0.46
125 | U31C U48C U78G | 0.28
126 | U31C U48C U80A | 0.41
127 | U31C U48G U72C C79U | 0.23
128 | U31C U49A U60C | 0.16
129 | U31C U49A U67C U80A | 0.28
130 | U31C U49A U78A | 0.48
131 | U31C U49A U78C | 0.5
132 | U31C U49C A57U | 0.18
133 | U31C U49C A64G | 0.29
134 | U31C U49C A65G | 0.13
135 | U31C U49C C81U | 0.48
136 | U31C U49C G55A | 0.32
137 | U31C U49C U54C C62U G63A U66C U80C | 0.1
138 | U31C U49C U67C | 0.22
139 | U31C U49C U72C | 0.2
140 | U31C U49C U74C C79U | 0.65
141 | U31C U51A A56G C62A | 0.17
142 | U31C U51A A57G A64G U80C | 0.12
143 | U31C U51A G63C | 0.19
144 | U31C U51A U69A | 0.46

Row | Variant | self-cleavage
145 | U31C U51A U69C U76A | 0.29
146 | U31C U51A U72C | 1.06
147 | U31C U51C A56G | 0.71
148 | U31C U51C A64G U76C U78C | 0.25
149 | U31C U51C A64U U72G | 0.18
150 | U31C U51C G63C A64U U80A | 0.13
151 | U31C U51C U72G | 0.26
152 | U31C U51G C62U | 0.17
153 | U31C U51G U66A | 0.34
154 | U31C U54A A56G A57G U66A C71A U72C | 0.17
155 | U31C U54A A64G | 0.39
156 | U31C U54A A65G U76A U78C | 0.23
157 | U31C U54A U67C A77U | 0.25
158 | U31C U54A U69A | 0.26
159 | U31C U54C A56G | 0.57
160 | U31C U54C A56G U67A U69C | 0.52
161 | U31C U54C A77U U78C | 1.01
162 | U31C U54C C68G | 0.32
163 | U31C U54C G63A U66C U80C | 0.21
164 | U31C U54C U66C U72C A77G U78C | 0.09
165 | U31C U54C U69C A75G | 0.34
166 | U31C U54C U78C | 0.89
167 | U31C U54G U58C | 0.21
